In all, about 48,000 compounds went through this assay and about 1,200 (2.5%) were called active. Not shown: some 2% with an inconclusive outcome.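 How the source made its calls: active means activation of at least 60% and not above a set upper limit (about 1 call in 100 departs from these limits); inconclusive means activation of 40% to 60%, or above that upper limit; inactive means activation under 40%.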 The list shows a part of the results.
target: Probable G-protein coupled receptor 32 (Homo sapiens) (UniProt O75388); assay: qHTS for Agonists of Human Resolvin D1 Receptor DRV1; conditions: CHO-K1 GPR32 beta-arrestin PathHunter luminescence, 90 min; at 76.9 µM; hits give high values; zero percent set by DMSO-only wells; further: 0% is about no effect
Sequence of UniProt O75388 (O75388 whole entry, looked up, the tested form may be a part): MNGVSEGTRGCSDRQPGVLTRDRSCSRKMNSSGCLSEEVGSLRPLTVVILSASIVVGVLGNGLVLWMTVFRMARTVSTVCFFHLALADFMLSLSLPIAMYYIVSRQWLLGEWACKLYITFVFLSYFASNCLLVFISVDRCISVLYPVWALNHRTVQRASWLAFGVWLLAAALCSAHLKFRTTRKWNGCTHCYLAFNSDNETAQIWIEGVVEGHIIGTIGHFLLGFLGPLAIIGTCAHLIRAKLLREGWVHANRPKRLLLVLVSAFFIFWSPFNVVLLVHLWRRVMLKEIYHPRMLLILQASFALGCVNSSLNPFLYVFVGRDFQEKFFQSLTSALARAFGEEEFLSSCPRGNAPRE
Outline: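 PathHunter enzyme-fragment complementation, CHO-K1 GPR32 stable line; 2,500 cells/well, overnight attach; cpd 90 min 37 °C 5% CO2; detection reagent 1 h RT; chemiluminescence. DMSO = EC0.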

activation, inactive:
Cn1c(=O)c(=O)n(C)c2cc(C(=O)NCc3ccccc3Cl)ccc21 -9.71%
O=C(Cn1nc(-c2ccc(Cl)cc2)c2ccccc2c1=O)Nc1cccc(C(F)(F)F)c1 -7.74%
Cn1c(SCc2cc(=O)c3cc(Cl)ccc3[nH]2)nnc1-c1ccccc1 2.31%
COc1cccc(Nc2nc3ccccc3c3nncn23)c1 -5.84%
COc1ccc(C2=NS(=O)(=O)N(C)C(C(=O)N(C)Cc3ccccc3)=C2)cc1OC -3.17%
Cc1ccccc1OCc1nc2ccccc2n1Cc1ccccc1Cl -35.3%
CC(=O)c1ccc(NC(=O)CSc2cn(CC(=O)N(C(C)C)C(C)C)c3ccccc23)cc1 -18.4%
CC(C)CCn1c(Oc2ccccc2F)nc2c1c(=O)n(C)c(=O)n2C -26%
CCCOc1cccc(C2c3c(-c4ccccc4O)n[nH]c3C(=O)N2Cc2ccco2)c1 (stereo not drawn) 8.88%
Cc1cccc(Nc2ccncc2S(=O)(=O)NC(=O)NC(C)C)c1 7.76%
CCS(=O)(=O)N1CCc2cc(C(=O)Nc3cccc(C(C)=O)c3)ccc21 10.7%
CCCCN(CC)C(=O)CCNS(=O)(=O)c1ccc2c(c1)c(=O)n(C)c(=O)n2C -1.14%
CCCNC(=O)C1Cc2cc(S(=O)(=O)N3CCCCCC3)ccc2N1C(C)=O (stereo not drawn) -21.4%
CCCNC(=O)Cn1c(=O)c2cccn2c2cccnc21 -1.74%
CCCn1cnc2cc(NCc3ccccc3OCC)ccc21 -29.3%
CCn1c(C(=O)NCc2ccccc2Br)cc2oc3ccccc3c21 24.2%
COC(=O)c1ccc(C(=O)OC)c(NC(=O)c2cc3nc(-c4ccc(C)cc4)cc(C(F)(F)F)n3n2)c1 -8.82%
Cc1ccc(C)c(N2C(=O)N(Cc3cccc(C(F)(F)F)c3)c3ccccc3S2(=O)=O)c1 -19.4%
CCn1c2c(c(=O)n3ncc(C(=O)N4CCN(c5ccc(C(C)=O)cc5)CC4)c13)CN(Cc1ccc(OC)cc1)CC2 4.24%
CCN(CC)C(=O)Cn1c(=O)n(Cc2ccc(C(=O)NCCCOC)cc2)c(=O)c2ccccc21 10%
O=C(Nc1ccc(F)cc1F)c1cc(S(=O)(=O)N2CCCCC2)c[nH]1 18.7%
COc1ccc(F)cc1S(=O)(=O)Nc1ccc2c(c1)CCCN2C(=O)c1cccs1 -16.1%
COc1ccc(C(=O)CCC(=O)Nc2ccc(F)cc2F)cc1 -19.9%
Cc1ccc(C)c(NC(=O)N2CCN3CCCCC3C2)c1 (stereo not drawn) -8.85%
CC(=O)c1c(C)oc2c1cc(NS(=O)(=O)c1c(C)cc(C)cc1C)c1ccccc12 22.3%
Cc1cc(NC(=O)c2cc(Cl)ccc2Cl)ccc1-c1cc2ccccc2oc1=O -7.38%
CCOC(=O)C1=C(C)N=C2SCCC(=O)N2C1c1ccc(OCc2ccccc2)c(OC)c1 (stereo not drawn) -8.74%
COC(=O)c1sccc1S(=O)(=O)N(CC(=O)NCc1ccc(C)cc1)c1ccc(C)c(C)c1 7.86%
CCOC(=O)CSc1nc2cc(OC)c(OC)cc2c2nc(-c3ccccc3)nn12 3.78%
NS(=O)(=O)c1ccc(NC(=O)COc2ccc(S(=O)(=O)NC3CCCCC3)cc2)cc1 18.6%
COc1cccc(-n2nnc(-c3nc(-c4cccs4)no3)c2N)c1 2.97%
COc1ccc(NS(=O)(=O)c2ccc3[nH]c(=O)ccc3c2)cc1OC -4.74%
O=C1CS(=O)(=O)C2(C(=O)N(Cc3ccccc3)c3ccccc32)N1c1ccc(F)c(Cl)c1 (stereo not drawn) 7.01%
CCOc1ccc(S(=O)(=O)Nc2cccc(OC)c2)c2cccnc12 6.72%
CN1C(=O)c2ccccc2Sc2ccc(NC(=O)NCc3ccc(Cl)cc3)cc21 -14.1%
Cc1ccc(CCNC(=O)CN2C(=O)COc3ccc(S(=O)(=O)N4CCCCCC4)cc32)cc1 -36.6%
O=C(Nc1cccc(Cl)c1)c1cc(-c2ccc3c(c2)OCO3)on1 35.1%
COc1ccc(S(=O)(=O)N(CC(=O)Nc2ccccc2Cl)Cc2ccccc2)cc1 -3.32%
COc1cc(OC)cc(C(=O)Nc2ccc3nc4n(c(=O)c3c2)CCCCC4)c1 -8.69%
CCCCC(=O)Nc1ccc(OCc2cc(=O)n3c(C)csc3n2)cc1 -3.36%
O=C(NCc1ccccc1Cl)c1c2c(nc3ccccc13)C(=O)N(C1CCCCC1)C2 -14.4%
COC(=O)CCCCCn1c(-c2ccccc2)cn2c3c(=O)n(C)c(=O)n(C)c3nc12 8.61%
CCN(CC)c1ccc(C2C(C(=O)Nc3ccccc3C)=C(C)Nc3ncnn32)cc1 (stereo not drawn) 3.92%
Cc1cccc(CCn2c(=O)c3ccccc3n(CC(=O)Nc3ccccc3F)c2=O)c1 10%
Cc1cc2c(cc1NC(=O)c1ccccc1Cl)n(C)c(=O)c(=O)n2C 8.08%
Cc1ccn2c(=O)cc(CSc3nnc(C)s3)nc2c1 -15.9%
COc1ccc(OC)c(C(=O)CSc2ncc3c(n2)-c2ccccc2N(Cc2ccccc2C)S3(=O)=O)c1 -12.1%
CCN(Cc1ccccc1)Cc1c(O)ccc2c(=O)c(-c3ccc(Cl)cc3)c(C(F)(F)F)oc12 -0.294%
Cc1ccc(C)c(N2CCN(CCCNC(=O)c3cnn(-c4ccccc4)c3C3CCN(C(=O)OC(C)(C)C)CC3)CC2)c1 -18.1%
Cc1cccc(-c2noc(-c3ccccc3OCC(=O)Nc3ccccc3[N+](=O)[O-])n2)c1 -9.05%
Cc1ccn2cc(CNC(=O)c3cccc(C(F)(F)F)c3)nc2c1 -14.7%
COc1ccccc1Nc1c2c(nc3ccc(NC(=O)c4ccccc4F)cc13)CCCC2 -34.1%
CCN(CC)CCCNC(=O)c1cn(CC(C)C)c(=O)c2c1c1ccccc1n2C -1.07%
Cc1ccc2nc(-c3ccsc3)c(Nc3ccc(Cl)cc3)n2c1 -29.5%
COc1ccc(-c2nnc(SCC(=O)N3CCc4ccccc43)o2)cc1OC 2.71%
COc1ccc(-c2nc3scc(CCNS(=O)(=O)c4ccc(Oc5ccccc5)cc4)n3n2)cc1 -13.7%
CC(=O)c1cccc(NC(=O)[C@H]2O[C@@H]3OC(C)(C)O[C@@H]3[C@H]3OC(C)(C)O[C@H]32)c1 -77%
COc1ccc(OCC(=O)N(Cc2sccc2C)C2CCS(=O)(=O)C2)cc1 (stereo not drawn) -12.8%
CCOC(=O)c1ccc(NC(=O)C(C)Sc2nc(=O)cc(N)n2CCc2ccccc2)cc1 (stereo not drawn) 10.6%
Cc1nn(C)c(C)c1S(=O)(=O)N(CC(=O)N1CCN(c2ccccc2)CC1)c1ccc(C(C)C)cc1 -13%
CCOc1ccccc1NC(=O)C1CCN(S(=O)(=O)c2ccc3[nH]c4c(c3c2)CCCCC4)CC1 -7.15%
Cc1cc(C)n(-c2nnc(Nc3cc(Cl)ccc3C)c3ccccc23)n1 -7.63%
COc1ccccc1NC(=O)c1cc2c([nH]c1=O)CC(C)(C)CC2=O 17.7%
Cc1ccc(C)c(NC(=O)Cn2c(=O)ccc3cc(S(=O)(=O)N4CCCC4)ccc32)c1 30.1%
O=C1C2=C(Nc3ccccc3SC2c2ccccc2C(F)(F)F)c2ccccc21 (stereo not drawn) -57.2%
O=C(NCc1cccs1)c1ccc(CSc2nc3cccnc3n2Cc2ccccc2)cc1 -32.2%
O=C(CCn1c(=O)c2cccn2c2ccccc21)Nc1ccc(F)cc1 -15.7%
CCCCCNC(=O)c1ccc2c(c1)nc(C)n2-c1cccc(C)c1 -3.74%
Cc1ccccc1NC(=O)c1ccc(F)c(S(=O)(=O)N(C)C2CCCCC2)c1 -19.2%
Cc1nc(-c2ccc(C)c(S(=O)(=O)N3CCC(C(=O)Nc4ccc(Cl)cc4)CC3)c2)no1 -3.85%
CCC1CCCCN1CCCNC(=O)c1cc2c(=O)n(CC)c3ccccc3c2s1 (stereo not drawn) -2.46%
COc1ccc(NC(=O)C2CCCN(S(=O)(=O)c3cccs3)C2)cc1 (stereo not drawn) 7.84%
CC1Cc2cc(S(=O)(=O)N(C)c3ccc(Br)cc3)ccc2N1C(=O)C1CC1 (stereo not drawn) -3.22%
Fc1ccc(Cc2cn3cc(-c4ccc(Cl)cc4)nc3s2)cc1 36.1%
N#C/C(=C/c1ccc(Cl)cc1Cl)c1nc2ccccc2c(=O)[nH]1 19.4%
COc1ccc(CNC(=O)C2CCN(S(=O)(=O)c3ccc(C)cc3)CC2)cc1 8.66%
CCN1CCN(C(c2ccccc2)c2c(O)cc(C)n(Cc3ccco3)c2=O)CC1 (stereo not drawn) -17.7%
CCOc1ccc(CCNC(=O)c2cccc(-n3c(C)nc4cccnc43)c2)cc1 2.86%
COc1ccc(-c2nnc3c4ccccc4c(-c4ccccc4)nn23)cc1 -9.64%
COC(=O)c1c(N)n(-c2ccc(OC)c(Cl)c2)c2nc3ccccc3nc12 47.2%
CCOC(=O)c1nnn(CC(=O)NC(=O)Nc2cccc(CC)c2)c1C(=O)OCC 34.6%
CCN(CC)C(=O)c1sc2c(c1C)c(=O)n(-c1ccc(Cl)c(Cl)c1)c(=O)n2CC(=O)Nc1cccc(OC)c1 -12.4%
COc1ccc(Cn2ccc3nc(C)c(C(=O)Nc4ccc(OC(F)(F)F)cc4)cc3c2=O)cc1 -22.5%

Reference: PubChem BioAssay AID1346428 (National Center for Advancing Translational Sciences (NCATS), 2018)
